Molecules are shown by their SMILES. Screen size: about 48,000 compounds; about 120 (0.25%) were called active. About 4% were inconclusive and are not listed. Calls come from the whole dose curve; as a rule, active = well fitted activation curve with a large enough effect; inconclusive = small, poorly fitted or top-dose-only effect, or another doubt; inactive = no such curve, though single readings can be large or run the other way. This is one part of the list.

This assay can be described thus: Primary qHTS for Identification of Small Molecule Activators of Huntingtin-Antisense Promoter Activity. Note: nearly all actives have a fitted effect of over 55% in size. Particulars: HEK293 HTT-AS promoter firefly luciferase reporter, 24 h; series mostly up to 57.5 µM; activity change, positive = activation: at the top concentration. In short, it runs like this:
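Quantitative HTS used concentration series of up to 57.5 uM final on HEK293 luciferase reporter cells, 24 h at 37 degrees C. Readout was Dual-Glo firefly luminescence.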
In general terms: qHTS replaces the single test concentration by a dilution series.
As for `C[C@@H](Oc1cc(-c2cnn(C3CCNCC3)c2)cnc1N)c1c(Cl)ccc(F)c1Cl`, the “activity change, positive = activation” value was inactive: -24.6%.

As for `O=C(NCCCN1CCN(c2ccccc2F)CC1)c1cc2c(s1)-c1ccccc1OC2`, the “activity change, positive = activation” value is inactive: -14.5%.

Consider `O=C(O)c1ccc(NC(=O)c2cc3ccccc3o2)cc1`, for which the “activity change, positive = activation” value is inactive: 24.2%.

For `CCc1ccc(-n2nc(C)c3c(C)cc(=O)n(CC(=O)Nc4ccccc4C(=O)OC)c32)cc1`, the “activity change, positive = activation” value is inactive: 11.7%.

Consider `CCCCOc1ccc(C(=O)N/C(=C\c2ccc(Br)cc2)C(=O)NC2CCCCC2)cc1`, for which the “activity change, positive = activation” value was inactive: -8.06%.

On to `CSCCC(NS(=O)(=O)c1ccc2c(c1)oc(=O)n2C)C(=O)N1CCN(c2ccc(F)cc2)CC1` (stereo unspecified), for which the “activity change, positive = activation” value is inactive: -0.0654%.

As to `Cc1cccc(-n2ccnc2SCC(=O)Nc2ccc3c(c2)OCO3)c1`, the “activity change, positive = activation” value was inactive: -16.2%.

As to `O=C(Nc1cccc(F)c1)C1CCN(c2nc3ccccc3[nH]2)CC1`, the “activity change, positive = activation” value was inactive: -4.79%.

On to `Cc1nc2c3ccccc3nc(NNC(=O)CCC(=O)N3CCN(c4cccc(C(F)(F)F)c4)CC3)n2n1`, for which the “activity change, positive = activation” value is inactive: -26.8%.

With `CCc1cccc(NC(=O)CCS(=O)(=O)c2ccc3nc(C)sc3c2)c1`, the “activity change, positive = activation” value is inactive: -14.8%.

As for `CCC(=O)N1CCc2cc(Br)cc(S(=O)(=O)CCC(=O)NCCc3ccccc3)c21`, the “activity change, positive = activation” value is inactive: 13.6%.

As to `CCc1ccccc1NC(=O)Cn1cc2c(n1)CCC(C)C2` (stereo unspecified), the “activity change, positive = activation” value is inactive: -7.51%.

For the compound `O=c1cc(-c2ccccc2)c2ccc3c(c2o1)CN(Cc1ccccc1)CO3`, the “activity change, positive = activation” value is inactive: -20.8%.

For the compound `C/C=C/c1ccc(O)c(OC)c1`, the “activity change, positive = activation” value was inactive: -7.64%.

`CCc1ccc(NS(=O)(=O)c2ccc3[nH]cc(C(=O)N(C)Cc4ccco4)c(=O)c3c2)cc1`: the “activity change, positive = activation” value was inactive: -9.94%.

On to `CC(C)CN(CCNC(=O)c1cn(C)c2ccc(S(=O)(=O)N3CCCC3)cc2c1=O)CC(C)C`, for which the activity change, positive = activation is inactive: 11.7% [at 11.5 µM, percent change from vehicle, -100% = no light].

For `CCCN(C(=O)CCNC(=O)Cn1cnc2ccccc2c1=O)c1cccc(C)c1`, the “activity change, positive = activation” value is inactive: -5.64%.

Turning to `O=C(CCOc1ccccc1)N(Cc1cccnc1)c1nc2ccc(F)cc2s1`, the “activity change, positive = activation” value is inactive: -3.04%.

For the compound `CCOC(=O)c1c(NC(=O)c2ccc(OC)c(OC)c2)sc2c1CCCCC2`, the activity change, positive = activation was inactive: -2.12% [at 11.5 µM, percent change from vehicle, -100% = no light].

Regarding `O=C(Nc1ccc2oc(-c3ccc(Cl)cc3)nc2c1)c1ccc2ccccc2c1`, the “activity change, positive = activation” value is inactive: 16.2%.

In the case of `CCN(CC)c1cc(C)c2cc(NC(=O)c3ccc(F)cc3Cl)ccc2n1`, the “activity change, positive = activation” value was inactive: -23.3%.

Regarding `CCN(C(=O)c1cc2c(=O)oc3ccc(C)cc3c2s1)c1ccccc1F`, the “activity change, positive = activation” value is inactive: -7.11%.

On to `Cn1c(=O)oc2cc(S(=O)(=O)N3CCC(C(=O)N4CCN(c5ccc(Cl)cc5)CC4)CC3)ccc21`, for which the “activity change, positive = activation” value is inactive: -29.6%.

Consider `CCOc1ccccc1NC(c1nnc(-c2ccccc2)o1)c1ccc(F)cc1Cl` (stereo unspecified), for which the “activity change, positive = activation” value was inactive: -22.9%.

For the compound `Cc1cccc(NS(=O)(=O)c2ccc(NC(=O)N3CCCC3)cc2)c1`, the “activity change, positive = activation” value was inactive: -18.2%.

Turning to `CCOc1ccc(-c2oc3cc(Cl)ccc3c(=O)c2O)cc1OC`, the “activity change, positive = activation” value is inactive: 7.67%.

As for `CCN(CC)CCCN(c1ccccc1)C1Cc2ccccc2C1`, the “activity change, positive = activation” value was inactive: -13.4%.

For `Cc1ccccc1CNC(=O)Nc1ccc2c(c1)N(C)C(=O)c1ccccc1S2`, the “activity change, positive = activation” value was inactive: -52.8%.

`COc1ccc(C2CC(=O)N(Cc3ccccc3)c3c2c(C)nn3-c2nc(C)cc(C)n2)c(OC)c1` (stereo unspecified): the “activity change, positive = activation” value is inactive: -15.9%.

For the compound `Cc1cn2c(=O)c(S(=O)(=O)NCc3ccccc3Cl)c(C)nc2s1`, the “activity change, positive = activation” value was inactive: -8.08%.

Turning to `Cc1cc(C)n(CCc2nc3c4ccccc4nc(N4CCN(c5ccc(F)cc5)CC4)n3n2)n1`, the “activity change, positive = activation” value is inactive: -12.4%.

For `CCN(C(=O)CSc1nc2ccccc2n1CC(=O)Nc1ccc(F)cc1F)c1ccccc1`, the “activity change, positive = activation” value was inactive: -24.4%.

Take `COc1ccc(-c2ccc(CCC(=O)O)n2-c2ccc(Cl)cc2C)cc1`: the “activity change, positive = activation” value was inactive: 8.18%.

For `CCN(C(=O)CSc1nc2n[nH]c(C)c2c(=N)n1-c1cccc(OC)c1)c1cccc(C)c1`, the “activity change, positive = activation” value is inactive: -48.4%.

Regarding `CCOC(=O)c1cccc(NC(=O)CCc2c(C)nn(-c3ccc(N4CCOCC4)nn3)c2C)c1`, the “activity change, positive = activation” value is inactive: 19.1%.

Regarding `CCc1ccc(-n2nc(CO)c(C(=O)NCc3ccccc3OC)n2)cc1`, the “activity change, positive = activation” value was inactive: 1.37%.

As for `COc1ccc(C2Oc3nc(SC)nnc3-c3ccccc3N2C(C)=O)cc1` (stereo unspecified), the “activity change, positive = activation” value was inactive: -13.7%.

Consider `COCCCn1c(=O)c2sccc2n2c(CCCC(=O)NCc3ccc(F)cc3)nnc12`, for which the “activity change, positive = activation” value is inactive: -2.6%.

Turning to `Cc1ccc2[nH]c3c(=O)n(CC(=O)NCCc4ccc(Cl)cc4)ncc3c2c1`, the “activity change, positive = activation” value is inactive: -5.45%.

On to `COc1ccc(NC(=O)C2CCN(c3cnccn3)CC2)cc1Cl`, for which the “activity change, positive = activation” value was inactive: -20.3%.

For the compound `CCn1cc(S(=O)(=O)c2cccc(C)c2)c(=O)c2cc(F)c(N3CCN(c4ccccc4)CC3)cc21`, the “activity change, positive = activation” value was inactive: -2.47%.

On to `CCC(C)NC(=O)c1sc2ncccc2c1-n1c(C)ccc1C` (stereo unspecified), for which the “activity change, positive = activation” value is inactive: -19.5%.

Take `CCOC(=O)c1ccc2[nH]c(CSc3nnc(-c4cccc(F)c4)n3C)cc(=O)c2c1`: the “activity change, positive = activation” value is inactive: -6.98%.

Turning to `Cc1ccc(-n2nc(C(=O)N3CCN(c4cccc(C(F)(F)F)c4)CC3)c3c4ccccc4n(C)c3c2=O)cc1`, the “activity change, positive = activation” value is inactive: 5.36%.

For `Cc1cccc(NC(=O)COc2cccc3c(=O)n(C)ccc23)c1C`, the “activity change, positive = activation” value was inactive: -32.5%.

Take `CCOc1cc(C2c3c(oc4ccccc4c3=O)C(=O)N2c2ccccn2)ccc1O` (stereo unspecified): the “activity change, positive = activation” value was inactive: -11%.

The values are drawn from PubChem BioAssay AID1508624 (National Center for Advancing Translational Sciences (NCATS), 2021).
